Several values for one entry are separate records, joined by “and”; a condition that tells them apart may be missing. Identical values can stand only once. About 16,000 (4.4%) of roughly 360,000 compounds were called active. The inconclusive results got no clear call from the source; some entries with a clear call stand among them for comparison. Calls follow the shape of the dose curve; as a rule, active = well fitted inhibition curve with a large enough effect; inconclusive = small, poorly fitted or top-dose-only effect; inactive = no such curve, though single readings can be large or run the other way. Potencies of inconclusive entries are doubtful fits and often do not repeat. More than one record can exist for a structure, and the calls need not agree.
Molecular target: Bromodomain adjacent to zinc finger domain protein 2B (Homo sapiens) (UniProt Q9UIF8)
Experiment: qHTS Assay for Inhibitors of BAZ2B; also: nearly all actives have a fitted effect of over 60% in size
Conditions: AlphaScreen BAZ2B-H3K14Ac peptide displacement; activity change, negative = inhibition: at 114 µM (top of the series)
Outline: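 In this displacement format the biotinylated H3(5-23) peptide acetylated at Lys14 serves as ligand at 50 nM, with BAZ2B at 50 nM in PBS pH 7.4 containing 0.01% Tween-20. Donor and acceptor beads are 10 ug/mL final.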
% is scaled to controls: 0 for no effect and ±100 for the full control effect; potency is read from the fitted curve at half-maximal effect; tags tell the direction and shape of the fitted curve.

UniProt Q9UIF8, sequence (Q9UIF8 whole entry, looked up, the tested form may be a part): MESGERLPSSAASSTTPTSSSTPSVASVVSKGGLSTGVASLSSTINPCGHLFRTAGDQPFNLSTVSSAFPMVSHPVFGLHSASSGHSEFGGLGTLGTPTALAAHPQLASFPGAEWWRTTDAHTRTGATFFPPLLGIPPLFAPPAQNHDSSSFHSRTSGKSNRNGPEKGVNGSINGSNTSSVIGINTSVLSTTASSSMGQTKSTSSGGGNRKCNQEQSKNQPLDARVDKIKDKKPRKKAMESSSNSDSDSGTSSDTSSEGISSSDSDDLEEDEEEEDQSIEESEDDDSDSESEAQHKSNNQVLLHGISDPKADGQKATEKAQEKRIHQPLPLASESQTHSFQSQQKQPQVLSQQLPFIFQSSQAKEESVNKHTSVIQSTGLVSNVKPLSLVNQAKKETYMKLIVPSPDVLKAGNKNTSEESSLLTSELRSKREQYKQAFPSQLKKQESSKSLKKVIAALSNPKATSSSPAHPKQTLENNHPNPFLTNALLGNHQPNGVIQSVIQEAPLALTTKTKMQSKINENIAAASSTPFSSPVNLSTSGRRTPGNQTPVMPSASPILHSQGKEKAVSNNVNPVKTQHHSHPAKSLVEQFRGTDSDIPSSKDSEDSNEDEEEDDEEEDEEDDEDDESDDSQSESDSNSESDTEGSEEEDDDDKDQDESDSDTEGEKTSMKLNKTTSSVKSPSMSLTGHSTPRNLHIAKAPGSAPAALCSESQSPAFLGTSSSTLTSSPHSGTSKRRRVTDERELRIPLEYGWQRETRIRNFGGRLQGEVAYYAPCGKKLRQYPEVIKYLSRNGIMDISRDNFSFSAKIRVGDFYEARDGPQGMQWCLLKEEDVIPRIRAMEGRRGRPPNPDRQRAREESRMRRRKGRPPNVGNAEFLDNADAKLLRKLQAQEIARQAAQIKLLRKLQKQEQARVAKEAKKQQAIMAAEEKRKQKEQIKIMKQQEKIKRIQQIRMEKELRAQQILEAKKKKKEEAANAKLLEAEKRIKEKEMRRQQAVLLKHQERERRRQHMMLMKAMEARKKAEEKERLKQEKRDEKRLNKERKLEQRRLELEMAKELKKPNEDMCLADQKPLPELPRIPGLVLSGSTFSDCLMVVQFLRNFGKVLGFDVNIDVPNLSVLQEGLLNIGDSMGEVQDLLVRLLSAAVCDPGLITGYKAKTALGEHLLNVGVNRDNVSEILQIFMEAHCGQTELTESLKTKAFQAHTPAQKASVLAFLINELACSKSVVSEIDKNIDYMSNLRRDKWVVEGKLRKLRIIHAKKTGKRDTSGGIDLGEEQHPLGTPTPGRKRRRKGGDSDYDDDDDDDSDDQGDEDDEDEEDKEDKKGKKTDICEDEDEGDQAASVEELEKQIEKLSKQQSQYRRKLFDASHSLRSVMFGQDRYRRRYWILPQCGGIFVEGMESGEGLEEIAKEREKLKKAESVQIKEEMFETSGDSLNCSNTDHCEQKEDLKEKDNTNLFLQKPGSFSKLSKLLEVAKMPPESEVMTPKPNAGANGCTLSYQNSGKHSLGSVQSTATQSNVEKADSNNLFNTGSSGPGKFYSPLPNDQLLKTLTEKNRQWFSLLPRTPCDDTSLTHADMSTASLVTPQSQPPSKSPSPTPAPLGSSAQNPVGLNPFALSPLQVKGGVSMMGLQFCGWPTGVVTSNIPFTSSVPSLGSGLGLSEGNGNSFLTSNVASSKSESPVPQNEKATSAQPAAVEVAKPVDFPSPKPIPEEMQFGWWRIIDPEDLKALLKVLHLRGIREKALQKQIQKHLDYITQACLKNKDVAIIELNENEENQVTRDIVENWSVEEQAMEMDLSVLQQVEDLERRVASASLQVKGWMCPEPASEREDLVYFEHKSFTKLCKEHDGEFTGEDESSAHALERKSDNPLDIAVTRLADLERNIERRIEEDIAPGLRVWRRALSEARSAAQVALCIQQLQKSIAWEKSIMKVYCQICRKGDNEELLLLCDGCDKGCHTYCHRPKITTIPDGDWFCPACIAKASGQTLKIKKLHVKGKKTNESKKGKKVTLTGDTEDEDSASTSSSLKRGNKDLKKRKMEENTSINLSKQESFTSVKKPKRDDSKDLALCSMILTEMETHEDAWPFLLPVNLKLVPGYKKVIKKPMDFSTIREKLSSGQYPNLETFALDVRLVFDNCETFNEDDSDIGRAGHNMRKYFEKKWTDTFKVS

Compound	Potency	activity change, negative = inhibition
CCN(CC)c1ccc(N)cc1S(=O)(=O)Nc1ccc(OC)cc1	inconclusive: 70.8 µM [inhibitor, single point]	–
CCc1ccccc1OCCCN1CCCC1	inconclusive: 89.1 µM [inhibitor, single point]	–
COc1ccc(CN(CC(O)COc2cccc3[nH]cc(C)c23)C(C)(C)C)cc1 (stereo not given)	inconclusive: 50.1 µM [inhibitor, partial curve]	–
CCNC(=O)NC(=O)C(C)OC(=O)CCS(=O)(=O)c1ccc(C)cc1 (stereo not given)	inconclusive: 89.1 µM [inhibitor, single point]	–
Cc1cc(C)nc(SCC(=O)N/N=C/c2cccn2-c2cccc(C(F)(F)F)c2)n1	inconclusive: 39.8 µM [inhibitor, single point]	–
Cc1nnc(NC(=O)c2ccc(-c3ccc([N+](=O)[O-])cc3)o2)s1	inconclusive: 79.4 µM [inhibitor, single point]	–
CCOC(=O)c1cc(S(=O)(=O)N2CCN(c3ccc(C(C)=O)cc3)CC2)[nH]n1	inconclusive: 89.1 µM [inhibitor, single point]	–
CCOc1ccc(NC(=O)COc2ccc(C(=O)NC(C)c3ccc(S(N)(=O)=O)cc3)cc2OC)cc1 (stereo not given)	–	inactive: 8.66%
CCCC12CN3CC(CCC)(CN(C1)C3c1ccccc1)C2=O (stereo not given)	–	inactive: -22.8%
Oc1ccc(N=Cc2sc3ccccc3c2Cl)cc1	active: 31.6 µM	–
CCCc1nnc(NC(=O)c2nc(S(=O)(=O)Cc3cccc(C)c3)ncc2Cl)s1	inconclusive: 89.1 µM [inhibitor, single point]	–
NNC(=O)[C@@H]1C[C@@H]1c1ccccc1	–	inactive: -9.77%
Nc1cc2c(cc1[N+](=O)[O-])OCO2	active: 56.2 µM	–
CCN(CC(=O)Nc1ccc(OC)cc1)C(=O)c1ccc2c(c1)NC(=O)CS2	–	inactive: 5.22%
COc1cc2c(cc1OC)C1(CCCC1)C(N)=C2C#N	inconclusive: 79.4 µM [inhibitor, single point]	–
CCN(CC)CC(C)CNC(=O)c1cc(-c2ccc(Br)s2)nc2ccccc12 (stereo not given)	–	inactive: -1.73%
COCCN(C(=O)C1CCN(C(=O)c2ccccc2C)CC1)c1c(N)n(CC(C)C)c(=O)[nH]c1=O	inconclusive: 89.1 µM [inhibitor, single point]	–
O=C(CSc1nnc2ccccn12)c1ccc(Cl)cc1	inconclusive: 89.1 µM [inhibitor, single point]	–
CCOC(=O)c1ccc(NS(=O)(=O)c2ccc3c(c2)n(C)c(=O)n3C)cc1	inactive and active: 79.4 µM	–
CC(=O)C1=C(O)C(=O)N(c2ccc(S(=O)(=O)Nc3nccs3)cc2)C1c1ccc([N+](=O)[O-])cc1 (stereo not given)	inconclusive: 70.8 µM [inhibitor, single point]	–
Cc1cccc(NC(=O)CN2C(=O)S/C(=C\c3ccc(O)c([N+](=O)[O-])c3)C2=O)c1	inconclusive: 50.1 µM [inhibitor, partial curve]	–
Cc1ccccc1CNS(=O)(=O)c1ccc2c(c1)C(C)(C)C(=O)N2C	inconclusive: 79.4 µM [inhibitor, single point]	–
Cc1ccc(C(=O)C(NC(=O)c2ccco2)Nc2sc3c(c2C(N)=O)CCCC3)cc1 (stereo not given)	inconclusive: 89.1 µM [inhibitor, single point]	–
COc1ccc(Nc2nc(=O)c3cc([N+](=O)[O-])ccc3s2)cc1	active: 79.4 µM	–

Compound	Potency	activity change, negative = inhibition
Cc1cccc(NC2=C(NCCO)C(=O)c3ccccc3C2=O)c1	active: 20 µM	–
O=C(/C=C/c1ccc(O)c(O)c1)NC(=O)c1ccccc1O	active: 50.1 µM	–
C#CCOCCOCCOCCNc1nc(N2CCN(C(=O)CCCCCCCCCCNC(=O)[C@H]([C@@H](C)CC)n3cc(CCCCN=C(N)N)nn3)CC2)nc(N2CCN(C(=O)CCCCCCCCCCNC(=O)[C@H]([C@@H](C)CC)n3cc(CCCCN=C(N)N)nn3)CC2)n1	active: 50.1 µM	–
O=C(C1=C[C@@H]2[C@H]3C(=O)N(c4ccccc4Cl)C(=O)[C@H]3[C@@H](C(=O)c3ccc(Cl)cc3)N2C=C1)c1ccccc1	–	inactive: -38.8%
CCC(NC(=O)c1cc(COc2ccc(F)cc2Cl)on1)c1ccncc1 (stereo not given)	–	inactive: -9.84%
NC(=O)CC[C@@H]1NC(=O)[C@H](CO)NC(=O)c2cc([N+](=O)[O-])cc(I)c2NCCC[C@@H](C(N)=O)NC(=O)[C@H](Cc2ccc(O)cc2)NC1=O	inconclusive: 79.4 µM [inhibitor, single point]	–
O=C(O)CCN1C(=O)C(=C2CCCCCC2)SC1=S	–	inactive: 9.7%
CCN1CCN(CCNC(=O)c2ccc(/C=C3\Sc4ccccc4N(Cc4ccccc4F)C3=O)cc2)CC1	inconclusive: 31.6 µM [inhibitor, partial curve]	–
O=S(Cc1ccc(Br)cc1)Cc1nnc(SCc2c(F)cccc2Cl)n1-c1ccccc1 (stereo not given)	inconclusive: 89.1 µM [inhibitor, single point]	–
CN(c1ccc(O)cc1)c1nc(-c2ccccc2)cs1	active: 50.1 µM	–
COc1ccc(/C=C(\NC(=O)/C=C/c2ccco2)C(=O)NCCc2nc3ccccc3[nH]2)cc1	active: 50.1 µM	–
COc1cccc(-c2nc(NCC3CCCO3)c3ccccc3n2)c1O (stereo not given)	inconclusive: 50.1 µM [inhibitor, partial curve]	–
CC(C)(C)c1nc2ccc([N+](=O)[O-])cc2[nH]1	inconclusive: 89.1 µM [inhibitor, single point]	–
O=S(=O)(Cc1ccc(Cl)cc1)c1ncc(CO)n1Cc1ccccc1	–	inactive: -4.92%
CC[C@]1(O)CC2CN(CCc3c([nH]c4ccccc34)[C@@](C(=O)OC)(c3cc4c(cc3OC)N(C=O)[C@H]3[C@@](O)(C(=O)OC)[C@H](OC(C)=O)[C@]5(CC)C=CCN6CC[C@]43[C@@H]65)C2)C1 (stereo not given in full)	inconclusive: 44.7 µM [inhibitor, partial curve]	–
COc1ccc(C(NC(=O)/C=C/c2ccco2)c2ccc(OC)cc2)cc1	active: 50.1 µM	–
Cn1c(=O)n(-c2ccc3c(c2)OCO3)c2nc(-c3ccccc3)nc(C(N)=O)c21	inconclusive: 89.1 µM [inhibitor, single point]	–
O=C(Nc1nc2ccc(S(=O)(=O)N3CCCC3)cc2s1)c1ccccn1	inconclusive: 39.8 µM [inhibitor, partial curve]	–
O=C1Nc2ccccc2/C1=C/c1cnc(-c2ccccc2)[nH]1	–	inactive: -27.3%
CCCn1c2ccccc2c2nnc(SCc3[nH]c(=O)[nH]c3C(=O)CCCCC(=O)OCC)nc21	–	inactive: -20.6%
Cc1ccc(C(C)C)cc1OCCN1CCCC1	inconclusive: 89.1 µM [inhibitor, single point]	–
Cc1ccccc1/C=N/Nc1ccnc2cc(Cl)ccc12	–	inactive: -5.67%
CCCc1cc(C(=O)N2CCCC(N3CCN(c4ccc(F)cc4)CC3)C2)no1 (stereo not given)	inconclusive: 89.1 µM [inhibitor, single point]	–
Cc1cc(=O)oc(C)c1C(=O)N[C@@H](Cc1ccccc1)C(=O)O	–	inactive: -2.14%

Compound	Potency	activity change, negative = inhibition
Fc1ccc(-n2cc(-c3ccccc3)c3c(NN4CCOCC4)ncnc32)cc1	inconclusive: 50.1 µM [inhibitor, partial curve]	–
O=C(NCc1nnc2n1CCCCC2)c1ccc(Cl)cc1Cl	inconclusive: 3.55 µM [inhibitor, single point]	–
CCOC(=O)c1sc(NC(=O)c2cc(-c3ccccc3)nc3ccccc23)c(C#N)c1C	inconclusive: 89.1 µM [inhibitor, single point]	–
COc1ccccc1CNC(=S)NCCc1ccccc1	–	inactive: -30.7%
Cc1cccc(C2N(c3nccs3)C(=O)C3CCCN32)c1 (stereo not given)	inconclusive: 50.1 µM [inhibitor, partial curve]	–
O=C(NC(=S)Nc1ccccc1N1CCCC1)c1ccccc1[N+](=O)[O-]	inconclusive: 12.6 µM [inhibitor, full curve]	–
N#C/C(=C\c1ccccc1C(F)(F)F)C(=O)Nc1ccccc1	–	inactive: -25.2%
Cn1c(O)c(/C=C2\C=Nc3ccccc32)sc1=Nc1ccc(C(=O)O)cc1	active: 50.1 µM	–
CN1CCc2nc(SCc3ccc(C(C)(C)C)cc3)c(C#N)cc2C1	inconclusive: 89.1 µM [inhibitor, single point]	–
c1cnc2c(OCc3cn4cccnc4n3)cccc2c1	inconclusive: 89.1 µM [inhibitor, single point]	–
Cc1cccn2c(CNCCc3ccco3)c(C(=O)N3CCOCC3)nc12	–	inactive: -19.5%
c1ccc(N=Nc2cn[nH]c2-c2ccco2)cc1	inconclusive: 14.1 µM [inhibitor, full curve]	–
COc1ccc(CCNC(=O)c2ccc3c(c2)c(C)c(C)n3Cc2ccc(F)cc2)c(OC)c1OC	–	inactive: -26.4%
CC(=O)c1ccc(NC(=S)NC(C)c2ccc(Cl)cc2Cl)cc1 (stereo not given)	inconclusive: 70.8 µM [inhibitor, single point]	–
Cc1ccc2nc(-c3ccccc3F)c(Nc3ccc(Cl)cc3)n2c1	inconclusive: 7.94 µM [inhibitor, full curve]	–
CCOc1ccc(NC(=S)N2C3CCCC2CC(NC(=O)C2CC2)C3)cc1 (stereo not given)	–	inactive: 1.39%
Cc1cccc(-n2nnnc2SCC(=O)c2cc(C)n(CC3CCCO3)c2C)c1 (stereo not given)	–	inactive: 12.4%
CCN(CC)c1ccc(/C=N/NC(=O)C(O)(c2ccccc2)c2ccccc2)o1	–	inactive: -8.08%
COc1ccc(OC)c(CN2CCN(C(=O)CN3C(=O)NC4(CCCC4)C3=O)CC2)c1	–	inactive: -5.9%
O=C(CNCc1ccccc1Cl)Nc1ccc2c(c1)OCCO2	active: 56.2 µM	–
O=C(NC1=NCCS1)c1cccs1	inconclusive: 89.1 µM [inhibitor, single point]	–
CCN1CCN(C(C)C(=O)Nc2c(C)n(C)n(-c3ccccc3)c2=O)CC1 (stereo not given)	active: 50.1 µM	–
